# Source: PubChem BioAssay AID330 (DTP/NCI, 2004)
# Toxic doses and inconclusive results are not listed. Not every entry of the source has a single result; some have several. The list is limited to them. There may be further records. The values listed for one entry differ for a reason that is not stated; they may come from other doses, times, organisms or constructs than stated. Records carry a tag for their origin. Letters hold for one entry only.
# Tested on: P388 leukemia ip, CD2F1 mice, survival T/C
# Assay: NCI In Vivo Anticancer Drug Screen. Data for tumor model P388 Leukemia (intraperitoneal) in CD2F1 (CDF1) mice
# Conditions: endpoint: median survival time, higher = longer survival
smiles,measurement,setting,value
CC(C)CC(NC(=O)C(N)Cc1ccc(N(CCCl)CCCl)cc1)C(=O)O (centres undefined),T/C,"dose: 5.6 mg/kg/injection, schedule: Q04DX003 (ip), vehicle: saline with Tween-80","171 % of control, 193 % of control [sample A] and 123 % of control [sample B]"
C1OC1C1CO1 (centres undefined),T/C,"dose: 20.0 mg/kg/injection, schedule: Q01DX009 (ip), vehicle: saline",113 % of control and 159 % of control
COCC1(COC)CCN(C2CC(O[C@H]3C[C@](O)(C(C)=O)Cc4c(O)c5c(c(O)c43)C(=O)c3c(OC)cccc3C5=O)OC(C)C2O)CC1 (some centres undefined),T/C,"dose: 6.25 mg/kg/injection, schedule: Q04DX003 (ip), vehicle: water",124 % of control and 168 % of control
CCN(CC)C1CC(O[C@H]2C[C@](O)(C(C)=O)Cc3c(O)c4c(c(O)c32)C(=O)c2c(OC)cccc2C4=O)OC(C)C1O (some centres undefined),T/C,"dose: 12.0 mg/kg/injection, schedule: Q04DX003 (ip), vehicle: water",101 % of control and 166 % of control
